The target of experiment [1] is human Peroxisome Proliferator-activated Receptor alpha (PPARa), PPARA (gene 5465) (UniProt Q07869). Kind of experiment: ATG_PPARa_TRANS: Attagene TRANS-FACTORIAL HepG2 Assay for human Peroxisome Proliferator-activated Receptor alpha (PPARa) (AID 2283001; active = hit-call score of the fitted dose curve at least 0.9, where 1 is the maximum). The method in brief:
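Measures transcriptional activity of an exogenous chimeric PPARa-Gal4 protein in transiently transfected HepG2 cells after 24 h dosing. Reporter mRNA quantified via RT-PCR and capillary electrophoresis; DMSO served as negative control.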

Experiment [2] addresses Nuclear receptor subfamily 1 group I member 2 (Homo sapiens) (UniProt O75469). The experiment is described as follows: ATG_PXR_TRANS: Attagene TRANS-FACTORIAL HepG2 Assay for human Pregnane X Receptor (PXR) (AID 2283008; active = hit-call score of the fitted dose curve at least 0.9, where 1 is the maximum). The method in brief: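 HepG2 cells transiently transfected with multiple reporter units, here a PXR-GAL4 chimera driving a GAL4-UAS reporter; 24 h compound exposure. Reporter mRNA measured by RT-PCR, FAM labelling and capillary electrophoresis; gain of signal fitted against DMSO baseline.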

For experiment [3], the target named is Retinoic acid receptor RXR-alpha (Homo sapiens) (UniProt P19793). Kind of experiment: ATG_RXRa_TRANS: Attagene TRANS-FACTORIAL HepG2 Assay for human Retinoid X Receptor alpha (RXRa) (AID 2283012; active = hit-call score of the fitted dose curve at least 0.9, where 1 is the maximum). In short, it runs like this:
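Cells (HepG2) carried transiently transfected GAL4-responsive reporter units. Following a 24 h chemical incubation, reporter mRNA induction was read via RT-PCR fragment analysis; DMSO served as negative control and baseline.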

Read-out in experiment [4]: E-selectin (Homo sapiens) (UniProt P16581)
Kind of experiment: BSK_3C_Eselectin: BioMAP Diversity Plus: 3C Assay for Eselectin Biomarker Activity (AID 2283015). The following applies: actives raise or lower the signal; primary human endothelial cells (HUVEC). The method in brief: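 E-selectin ELISA readout, fitted bidirectionally relative to DMSO, taken 24 h post-dosing in HUVEC cultures of the 3C system. Overt cytotoxicity tracked with sulforhodamine B staining of parallel wells.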

The nature of experiment [5]: BSK_BE3C_SRB: Viability Assessment in the BioMAP Diversity Plus: BE3C Assay (AID 2283028).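 Also: fitted both ways so AC50 may mark signal gain or loss versus DMSO.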 The following applies: primary human bronchial epithelial cells. The method in brief:
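Cytotoxicity read-out: SRB (0.1%) staining of TCA-fixed (10%) human lung bronchial epithelial cells, absorbance 560 nm, 24 h post-dosing. Curves fitted both directions relative to DMSO.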

Read-out in experiment [6]: Vascular cell adhesion molecule 1 (VCAM1), VCAM1 (gene 7412)
The experiment is described as follows: BSK_4H_VCAM1: BioMAP Diversity Plus: 4H Assay for Vascular cell adhesion molecule 1 (VCAM1) Biomarker Activity (AID 2283033). The following applies: actives raise or lower the signal; primary human endothelial cells (HUVEC). In short, it runs like this:
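Endpoint derived from bidirectional fitting against DMSO controls of VCAM-1 ELISA signal in umbilical vein endothelial cells sampled at 24 h following treatment.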

Read-out in experiment [7]: Interleukin-6 (IL6), IL6 (gene 3569)
Kind of experiment: BSK_CASM3C_IL6: BioMAP Diversity Plus: CASM3C Assay for Interleukin-6 (IL6) Biomarker Activity for (AID 2283040). The following applies: actives raise or lower the signal; primary human coronary artery smooth muscle cells.

Read-out in experiment [8]: Monocyte Chemoattractant Protein-1 (MCP1), CCL2 (gene 6347)
The experiment is described as follows: BSK_CASM3C_MCP1: BioMAP Diversity Plus: CASM3C Assay for Monocyte Chemoattractant Protein-1 (MCP1) Biomarker Activity (AID 2283046).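 Also: MCP-1 level quantified by ELISA 24 h after dosing.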 The following applies: actives raise or lower the signal; primary human coronary artery smooth muscle cells.

Read-out in experiment [9]: serum amyloid A (SAA), SAA1 (gene 6288)
Kind of experiment: BSK_CASM3C_SAA: BioMAP Diversity Plus: CASM3C Assay for serum amyloid A (SAA) Biomarker Activity (AID 2283049).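 Also: SAA protein level quantified by ELISA.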 The following applies: actives raise or lower the signal; primary human coronary artery smooth muscle cells.

Read-out in experiment [10]: TIMP metallopeptidase inhibitor 1 (TIMP1), TIMP1 (gene 7076)
The experiment is described as follows: BSK_hDFCGF_TIMP1: BioMAP Diversity Plus: hDFCGF Assay for TIMP metallopeptidase inhibitor 1 (TIMP1) Biomarker Activity (AID 2283062). The following applies: actives raise or lower the signal; primary human foreskin fibroblasts. In short, it runs like this:
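TIMP-1 measured by ELISA 24 h after chemical dosing of primary human skin fibroblasts, with gain or loss fitted relative to DMSO. Parallel SRB staining (560 nm) monitored overt cytotoxicity.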

Read-out in experiment [11]: Monokine induced gamma interferon (MIG), CXCL9 (gene 4283)
Kind of experiment: BSK_hDFCGF_MIG: BioMAP Diversity Plus: hDFCGF Assay for Monokine induced gamma interferon (MIG) Biomarker Activity (AID 2283063). The following applies: actives raise or lower the signal; primary human foreskin fibroblasts. The method in brief: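 Human primary foreskin fibroblasts in the hDFCGF system, exposed to test chemical for 24 h; MIG measured by ELISA. Bidirectional curve fitting against DMSO negative control as activity baseline.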

Read-out in experiment [12]: Matrix Metallopeptidase 1 (MMP1), MMP1 (gene 4312)
The experiment is described as follows: BSK_hDFCGF_MMP1: BioMAP Diversity Plus: hDFCGF Assay for Matrix Metallopeptidase 1 (MMP1) Biomarker Activity (AID 2283064). The following applies: actives raise or lower the signal; primary human foreskin fibroblasts. The method in brief: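 Primary human foreskin fibroblasts exposed to chemicals for 24 h; MMP1 measured by ELISA. Cytotoxicity tracked by SRB staining in parallel cultures; bidirectional fit relative to DMSO.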

Read-out in experiment [13]: Plasminogen activator inhibitor-1 (PAI1), SERPINE1 (gene 5054)
Kind of experiment: BSK_hDFCGF_PAI1: BioMAP Diversity Plus: hDFCGF Assay for Plasminogen activator inhibitor-1 (PAI1) Biomarker Activity (AID 2283066). The following applies: actives raise or lower the signal; primary human foreskin fibroblasts. The method in brief: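 PAI-1 levels, determined by ELISA, served as the endpoint in human foreskin fibroblast cultures exposed to compound for 24 h, with DMSO as baseline.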

Experiment [14] can be described thus: BSK_KF3CT_SRB: Viability Assessment in the BioMAP Diversity Plus: KF3CT Assay (AID 2283069).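 Also: total protein by sulforhodamine B staining as a cytotoxicity measure; read 24 h after compound addition; fitted for both signal gain and loss against DMSO baseline.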 The following applies: primary human keratinocytes with fibroblasts. In short, it runs like this:
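Human keratinocyte and foreskin fibroblast co-culture exposed to chemical for 24 h. Total protein measured in parallel cultures by 0.1% sulforhodamine B staining after 10% TCA fixation, read at 560 nm; bidirectional fit relative to DMSO.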

Read-out in experiment [15]: Interleukin-1 alpha (IL1a), IL1A (gene 3552)
Kind of experiment: BSK_KF3CT_IL1a: BioMAP Diversity Plus: KF3CT Assay for Interleukin-1 alpha (IL1a) Biomarker Activity (AID 2283070). The following applies: actives raise or lower the signal; primary human keratinocytes with fibroblasts. The method in brief:
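Primary human keratinocyte plus foreskin fibroblast co-culture, dosed and measured at 24 h in 96-well plates. IL-1a level quantified by ELISA; bidirectional fit relative to DMSO.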

Several values for one entry are separate records, joined by “and”; a condition that tells them apart may be missing. Equal entries are not always repeated. Only a part is listed here, and it is no random draw. Records with an inconclusive call do not appear. More than one record can exist for a structure, and the calls need not agree. Activity calls are given as the source filed them. The calls were made as follows, unless noted: active = hit-call score of the fitted dose curve at least 0.9, where 1 is the maximum; inactive = score below 0.9.

In PubChem BioAssay (EPA / NIEHS) one finds outcome and AC50 data, which are given here for one molecule.

Chain of UniProt O75469 (O75469 whole entry, looked up, the tested form may be a part): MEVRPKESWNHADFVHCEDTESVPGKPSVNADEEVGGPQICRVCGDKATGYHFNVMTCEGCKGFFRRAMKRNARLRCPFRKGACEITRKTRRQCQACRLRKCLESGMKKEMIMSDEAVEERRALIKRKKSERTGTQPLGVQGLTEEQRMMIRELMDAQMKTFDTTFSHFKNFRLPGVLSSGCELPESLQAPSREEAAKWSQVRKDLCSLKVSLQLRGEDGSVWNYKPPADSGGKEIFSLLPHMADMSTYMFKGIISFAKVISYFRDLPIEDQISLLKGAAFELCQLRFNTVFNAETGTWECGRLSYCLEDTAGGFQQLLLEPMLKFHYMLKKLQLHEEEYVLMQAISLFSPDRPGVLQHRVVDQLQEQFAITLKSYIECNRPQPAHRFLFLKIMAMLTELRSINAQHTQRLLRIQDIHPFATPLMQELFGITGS
Chain of UniProt P19793 (P19793 whole entry, looked up, the tested form may be a part): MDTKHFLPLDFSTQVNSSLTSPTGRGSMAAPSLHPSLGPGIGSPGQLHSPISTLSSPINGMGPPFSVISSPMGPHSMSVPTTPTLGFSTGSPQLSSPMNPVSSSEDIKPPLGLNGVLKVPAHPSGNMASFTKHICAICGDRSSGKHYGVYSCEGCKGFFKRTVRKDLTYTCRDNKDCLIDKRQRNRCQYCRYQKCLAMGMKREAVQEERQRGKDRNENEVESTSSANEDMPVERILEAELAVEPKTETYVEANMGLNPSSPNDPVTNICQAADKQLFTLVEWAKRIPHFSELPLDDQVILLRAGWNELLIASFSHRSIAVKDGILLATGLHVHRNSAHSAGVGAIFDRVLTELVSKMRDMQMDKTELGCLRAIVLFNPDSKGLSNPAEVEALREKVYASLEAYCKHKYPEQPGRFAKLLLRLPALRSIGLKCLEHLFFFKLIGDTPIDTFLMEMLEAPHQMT
Chain of UniProt P16581 (P16581 whole entry, looked up): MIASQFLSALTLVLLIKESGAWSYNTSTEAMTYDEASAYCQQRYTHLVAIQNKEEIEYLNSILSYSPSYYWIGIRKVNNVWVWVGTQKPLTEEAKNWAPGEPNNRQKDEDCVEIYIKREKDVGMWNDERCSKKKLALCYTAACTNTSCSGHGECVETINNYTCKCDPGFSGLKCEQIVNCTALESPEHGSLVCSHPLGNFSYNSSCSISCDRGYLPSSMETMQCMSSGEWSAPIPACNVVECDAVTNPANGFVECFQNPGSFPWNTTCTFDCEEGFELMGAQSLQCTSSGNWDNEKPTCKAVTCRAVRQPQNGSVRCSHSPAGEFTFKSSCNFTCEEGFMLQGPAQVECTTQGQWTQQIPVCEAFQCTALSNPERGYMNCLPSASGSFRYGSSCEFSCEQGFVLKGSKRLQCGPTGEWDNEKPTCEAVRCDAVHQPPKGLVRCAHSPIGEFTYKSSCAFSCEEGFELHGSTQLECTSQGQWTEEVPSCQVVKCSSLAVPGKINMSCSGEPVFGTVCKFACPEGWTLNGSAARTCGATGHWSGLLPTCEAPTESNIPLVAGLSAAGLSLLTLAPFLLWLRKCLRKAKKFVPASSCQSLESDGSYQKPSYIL
Chain of UniProt Q07869 (Q07869 whole entry, looked up, the tested form may be a part): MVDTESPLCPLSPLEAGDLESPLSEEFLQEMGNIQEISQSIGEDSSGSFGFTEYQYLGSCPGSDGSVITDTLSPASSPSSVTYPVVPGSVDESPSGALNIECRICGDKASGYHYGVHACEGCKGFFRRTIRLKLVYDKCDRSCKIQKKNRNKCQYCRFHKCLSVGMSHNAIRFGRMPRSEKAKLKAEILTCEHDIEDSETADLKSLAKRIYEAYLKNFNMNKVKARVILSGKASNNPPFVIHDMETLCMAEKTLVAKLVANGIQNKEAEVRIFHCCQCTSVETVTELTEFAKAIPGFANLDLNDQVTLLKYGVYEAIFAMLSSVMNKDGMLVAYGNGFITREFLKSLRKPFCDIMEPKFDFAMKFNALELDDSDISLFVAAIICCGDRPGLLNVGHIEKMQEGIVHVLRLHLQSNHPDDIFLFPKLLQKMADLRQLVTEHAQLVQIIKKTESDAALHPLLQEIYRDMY

As for `Oc1ccc(Cl)cc1Cc1ccccc1`, the molecule was called inactive in experiment [1]. The AC50 in experiment [2] was active: 14.6 µM; in experiment [3] it was active: 15.4 µM; in experiment [4], active: 31.2 µM; in [5] it was active: 38.6 µM and active: 35.1 µM; in [6], active: 25.6 µM; in experiment [7], active: 27.4 µM. The AC50 in experiment [8] was active: 31.8 µM and active: 32.5 µM; in [9], active: 31.4 µM; in experiment [10], active: 15.5 µM; in [11] it was active: 26.4 µM and active: 25.6 µM; in experiment [12], active: 13.5 µM; in experiment [13], active: 10.8 µM. For the same molecule, the AC50 is active: 35.2 µM in [14] and active: 29.4 µM in experiment [15].
